Article PMC4678028, “Oligomerization of Baculovirus LEF-11 Is Involved in Viral DNA Replication” (PLoS ONE, 2015)
These are yes or no findings as the source states them, for the method shown. For some of these results: In cells and extracts the contact can be indirect. Some entries that bind do so weakly or less than the wild type. For some of these results: Tags and fused reporters may be left off the sequences shown.

How the values were obtained:
[1] = molecular target: DsRed-LEF11 (92–112) (Bombyx mori nucleopolyhedrovirus (BmNPV)) (UniProt O92404); experiment: non-reducing SDS-PAGE with western blot; lysates of BmN-SWU1 cells transfected with pIZ-DsRed-LEF11 truncation or point mutant plasmids; loading buffer without β-mercaptoethanol; anti-DsRed blot
[2] = molecular target: DsRed-LEF11 (72–91) (Bombyx mori nucleopolyhedrovirus (BmNPV)) (UniProt O92404); experiment: as above
[3] = molecular target: DsRed-LEF11 (2–41) (Bombyx mori nucleopolyhedrovirus (BmNPV)) (UniProt O92404); experiment: as above
[4] = molecular target: DsRed-LEF11 (82–112) (Bombyx mori nucleopolyhedrovirus (BmNPV)) (UniProt O92404); experiment: as above
[5] = molecular target: T1, BmNPV late expression factor 11 (LEF-11), cMYC- or FLAG-tagged (Bombyx mori nucleopolyhedrovirus (BmNPV)), O92404; experiment: co-IP; BmN-SWU1 cells co-transfected with LEF11-FLAG and LEF11-cMYC, lysed at 72 h.p.t.; IP with anti-FLAG (mouse IgG as control), protein A+G agarose, 4°C; blot with anti-cMYC; settings: remark: other sources report otherwise
T1 chain: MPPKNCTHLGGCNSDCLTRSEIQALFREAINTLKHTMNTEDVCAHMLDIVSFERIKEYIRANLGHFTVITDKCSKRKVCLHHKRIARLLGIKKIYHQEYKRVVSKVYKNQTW

[6] = molecular target: T1, BmNPV late expression factor 11 …; experiment: non-reducing SDS-PAGE with western blot; lysate of BmN-SWU1 cells transfected with pIZ-LEF11^cMYC, 72 h.p.t.; loading buffer without β-mercaptoethanol; 12% SDS-PAGE; anti-cMYC blot; settings: remark: other sources report otherwise
[7] = molecular target: BmNPV late expression factor 11 (LEF-11), cMYC- or FLAG-tagged (Bombyx mori nucleopolyhedrovirus (BmNPV)) (UniProt O92404); experiment: reducing SDS-PAGE with western blot; same lysate of BmN-SWU1 cells transfected with pIZ-LEF11^cMYC; loading buffer with β-mercaptoethanol; anti-cMYC blot

## DsRed-LEF11 (92–112) (from UniProt O92404 92-112) (domain or fragment)
[1]
  binding: no binding

## DsRed-LEF11 (72–91) (from UniProt O92404 72-91) (domain or fragment)
[2]
  binding: no binding

## DsRed-LEF11 (2–41) (from UniProt O92404 2-41) (domain or fragment)
[3]
  binding: no binding

## DsRed-LEF11 (82–112) (from UniProt O92404 82-112) (domain or fragment)
[4]
  binding: no binding

B1: BmNPV late expression factor 11 (LEF-11), cMYC- or FLAG-tagged, O92404 1-112 (natural protein)
chain: T1 chain
[5]
  binding: binds
[6]
  binding: binds

B2: BmNPV late expression factor 11 (LEF-11), cMYC- or FLAG-tagged (protein, UniProt O92404 1-112)
chain: T1 chain
[7]
  binding: no binding (condition: with β-mercaptoethanol)
